The source gives no read counts; variants with many changes may rest on few reads.

B1: LINE1-mini (parent)
chain: GGCAGAGCUCAACACAGCGUGGCAAAGUGGCUGUGGCUAGACUGCC

In the data set the parent is B1. In words: self-cleavage, relative activity (ratio to wild type); higher = more cleavage; in vitro, sequencing; the parent is a self-cleaving ribozyme.
As to GGCUGACCUCAACACAGCGUGGCAAAUUGGCUGUGGCUAGACUGCC [A4U G7C G27U], the self-cleavage was 0.33.
Take GGCUCAGCUUAACACAGUUUAGCAAAGUGGCUGUGGUUAGGCUGCC [A4U G5C C10U C18U G19U G21A C37U A41G]: the self-cleavage stood at 0.01.
The result for GGCUGAGCUCAACACAGAGUUGCAAAGUGGCUGUUGCUAGACUGCC [A4U C18A G21U G35U] reads 0.07.
As to GGCUAAGCUCAACACAGCGUGGCAACGUGGCUGUGUCUAGACUGCC [A4U G5A A26C G36U], the self-cleavage worked out at 0.23.
Regarding GGCUCAGCCCAACACAGCGUGGCAAAGUGGCUGUGGCUAGACUGCC [A4U G5C U9C], the self-cleavage turned out to be 0.05.
In the case of GGCUGAACGAAACACAGCGUGGCAAAGUGGCUGAGGCUAGACUGCC [A4U G7A U9G C10A U34A], the self-cleavage was determined as 0.03.
The result for GGCUGAGCUCAACACAGCGUGGUAAAGUGGCUGUGCCUAGACUGCU [A4U C23U G36C C46U] reads 0.02.
The result for GGCUGAUCUCAACCCAGCGUGGCAAAGUGGCUGUGGCUAGACUGCC [A4U G7U A14C] reads 0; that for GGCUGACCUCAUCACAGCGCGGCAAAGUGGGUGUGGCUAGACUGCC [A4U G7C A12U U20C C31G], 0.01.
The result for GGCUGAGCUCAACACAGCGUGGCAAAGUGGCUGUGGGUCGACUGCC [A4U C37G A39C] reads 0.03; that for GGCUGAGCUCAACACAGCGUGGCAAAGUGGCUGUGGGUAUAAUGCC [A4U C37G G40U C42A], 0.09; that for GGCUGAGCUCAACACAGCGUGGCAAAGUGGCUGUGGGUUCACUGUC [A4U C37G A39U G40C C45U], 0.04.
On to GGCUGAGCUCAACACAGCGUGGGAAAGUGGCUGUGGCUAGACAGCC [A4U C23G U43A], for which the self-cleavage is 0.55.
For GGCUGAGCUCAACACAGGGUGGCAAAGUGGCUGUGGCUAGACUGAC [A4U C18G C45A], the self-cleavage came out at 0.06.
The value for GGCUAAGCUCAACACAACUUGGCAAAGUGGCUGUAGCUAGACCGGC [A4U G5A G17A G19U G35A U43C C45G] was 0.01; that for GGCUGAGCUCAACACAGCGUGGCAAAGUGGUUUUGGCUAGGCUGCC [A4U C31U G33U A41G] was 0.09.
Turning to GGCUGACCUAAACCCAGCGUGGCAAAGUGGGUGUGGCUAGACUGCC [A4U G7C C10A A14C C31G], the self-cleavage worked out at 0.04.
The result for GGCUGACCUCAUAACAGCGUGGCAAACUGUCUGUGGCUAGACUGCC [A4U G7C A12U C13A G27C G30U] reads 2.24; that for GGCUGAGCUCAACACAGUGUGGCAAAGUGGCUGUGGCUAUACCGCC [A4U C18U G40U U43C], 0.02; that for GGCUGAGCUCAACACAACGUGACAAAGUGGCUGUGGCUAGACUGGC [A4U G17A G22A C45G], 0.03.
Turning to GGCUGAGCUCAACACAGCGUGGAAAAGUUGGUGUGGCUAGACUGCC [A4U C23A G29U C31G], the self-cleavage was 0.04.
The value for GGCUAAACUCAACACAGCGUGGCAAAGUGGCUGUGGCUAGACAGCC [A4U G5A G7A U43A] was 0.12.
Turning to GGCUUAGCUCAACACAGCGUGGCAAAGUGGCUGUGGGUAGACUGCC [A4U G5U C37G], the self-cleavage worked out at 0.03.
The result for GGCUGAGCUCAACACAGUGUGGCAAAGGGGCUGUGCCAAGACUGCC [A4U C18U U28G G36C U38A] reads 0.14; that for GGCUGAACUCAACACAGCCUGGUAAAGUGGCUGUGGCUAGACCGCC [A4U G7A G19C C23U U43C], 0.19; that for GGCUGAGCUCAACACAGCGUGGAAAAGUGGCUGUGGUUAAACUGCC [A4U C23A C37U G40A], 0.03.
As for GGCUCAGCUCAACGCAGCGUGCUGAAGUGGCGGUGGCUAGACUGCC [A4U G5C A14G G22C C23U A24G U32G], the self-cleavage is 0.03.
The result for GGCUGAGCUCAACACAGUGUGGCAAAGUGGCUGUGGCUAGCCUGCC [A4U C18U A41C] reads 0.07.
The value for GGCUAAGCUCAAGACAGCGUGGCAAAGUGGCUGUGGCUAGACUGCC [A4U G5A C13G] was 0.09; that for GGCUAACCUCAACCAAGCGUGGCAAUGUGGCUGUGGCUAUACUGCC [A4U G5A G7C A14C C15A A26U G40U] was 0.04; that for GGCUUAGCUCAACACAGCGUGGCAAAGUCGCUGUGGCUACACUGCC [A4U G5U G29C G40C] was 0.05.
The result for GGCUGACCUCAACACAGCGUGGCAAAGUGUCUGUGGCUAGACUGAC [A4U G7C G30U C45A] reads 0.13; that for GGCUGAGCUCAACACAGAGUGGCAAAGGGGCUGAGGCUAGAGUGCC [A4U C18A U28G U34A C42G], 0.01; that for GGCUGAGCUCAACACAACGUGGCAAAGUGGCUAUGCCUAGACUGCC [A4U G17A G33A G36C], 0.06.
On to GGCUUAGCUCACUACAGCGUGGCAAAGUGGCUGUGGCUAGACUGUC [A4U G5U A12C C13U C45U], for which the self-cleavage is 0.01.
Consider GGCUGAGCUCAACACAACGUGGCAAACUGGCUGUGGUUAGACUGCC [A4U G17A G27C C37U], for which the self-cleavage was found to be 0.05.
The value for GGCUGAGCUCAACACAGCGUGGCAAAGUGGAUGUGGCUAGAUUGCC [A4U C31A C42U] was 0.43; that for GGCUGAUCUCAACACAGCGUGGCAAAGUGGCUGUGGCUAGACUGCG [A4U G7U C46G] was 0.15.
The result for GGCUGAGCUCAACACAGCGUGGCAAAGUGGCUGUGGCUAGAUUUCC [A4U C42U G44U] reads 0.05; that for GGCUGAGCUCAACACAGAGUGGCAAAGUGGCUGUCGCUAGACUGCC [A4U C18A G35C], 0.05; that for GGCUGAGCUCAACACAGUGUGGCAAAGUGCCUGUGGCUAGAAUGCC [A4U C18U G30C C42A], 0.32.
Consider GGCUUAGCUCAACACAGCGUCGCAAAGUGGCGGUGGCUAGACUGCC [A4U G5U G21C U32G], for which the self-cleavage came out at 0.12.
As for GGCUGAACUCAACACAGCGUGGAAAAGUGGCUGUGGCUAGACUGCC [A4U G7A C23A], the self-cleavage was 0.14.
Take GGCUAAGCUCAACACAGCAUGGCAAAGUGGCUGUGGCUCGACUGUC [A4U G5A G19A A39C C45U]: the self-cleavage was found to be 0.38.
The result for GGCUGAGCUCAACACAGCAUAGCAAAGUGGCUGUGGCUAGACUGCA [A4U G19A G21A C46A] reads 0.3.
GGCUCAGCUCAAUACAGUGUGGCAAAGUGGCUGUCGCUAGACUGCC [A4U G5C C13U C18U G35C]: the self-cleavage turned out to be 0.12.
The value for GGCUGAGCUCAACACAGCAUGGCACAGUGGCUGUGGGUAGUCUGCC [A4U G19A A25C C37G A41U] was 0.03.
The value for GGCUUAGCUCAACACCGCGUGGCAAAGUGGCUGUGGCUAGACUCCC [A4U G5U A16C G44C] was 0.04; that for GGCUGAGCUCAACACAUCGAGGCAAAGUGGCUGUGGCUAGACUGCC [A4U G17U U20A] was 0.05; that for GGCUGAGCUCAACACAGCGUGGGAACGUGGCUGUGGCUAGACUGCC [A4U C23G A26C] was 0.07.
The result for GGCUUAGCUCAACACAGCGUGUCAAAUCGGCUGUGGCUAGACUGCC [A4U G5U G22U G27U U28C] reads 0.13; that for GGCUCAGCUCAACAAAGCGUGGCAAAGUGGCUGUGGCUAGAGUGCC [A4U G5C C15A C42G], 0.03; that for GGCUGAGCUCAACACAGCGUGGCAAAGUGGCUGUGGGUAGAUUGCC [A4U C37G C42U], 0.01.
For GGCUUAGCUCAACACAGCGUGGCAAAGUCGCUGUGGCUAGACUGCC [A4U G5U G29C], the self-cleavage turned out to be 0.13.
As for GGCUGAGCUCAACACAGCGUGGCAAAGUGGGUGUGCAUAGAAUGCC [A4U C31G G36C C37A C42A], the self-cleavage is 0.02.
Consider GGCUCAGCUCAACCCAGCGUGUCAAAGUGGCUGUGGCUAGACUGCC [A4U G5C A14C G22U], for which the self-cleavage stood at 0.06.

(Values after the RNAGym collection of RNA variant scans (doi:10.7554/elife.90254).)
